The other results are listed elsewhere or left out.

The target of this experiment is T1, MBP-FoxP1dN (Mus musculus, UniProt P58462 326-579).
T1 sequence: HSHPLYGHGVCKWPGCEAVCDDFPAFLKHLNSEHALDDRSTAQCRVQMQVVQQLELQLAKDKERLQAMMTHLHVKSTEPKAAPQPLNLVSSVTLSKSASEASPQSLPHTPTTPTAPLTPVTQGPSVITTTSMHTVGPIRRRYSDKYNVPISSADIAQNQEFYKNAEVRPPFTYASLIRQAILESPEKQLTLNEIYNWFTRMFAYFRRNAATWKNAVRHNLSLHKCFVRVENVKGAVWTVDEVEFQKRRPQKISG
Description: PD-seq (MBP pull-down with sequencing); 20 mM Tris-HCl pH 7.5, 100 mM NaCl, 1.5 mM MgCl2, 0.4 uM protein, 0.1 uM dsDNA library, 30 min, room temperature, amylose pull-down; high values mean tight binding. The settings on record: protein: recombinant; tags: His6-MBP; chain copies: 2; dsDNA, one strand shown. In a few lines: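 A fragment of mouse FoxP3 or FoxP1 without its N-terminus, carrying a His6-MBP tag and produced in E. coli, was combined at 0.4 µM with a 0.1 µM degenerate double-stranded DNA library filled in with Klenow. The mixture sat for 30 min at room temperature in Tris pH 7.5 buffer containing NaCl and MgCl2. Protein–DNA complexes were captured on amylose resin, washed three times, and the DNA was freed with proteinase K, barcoded by PCR and sequenced on Illumina. Binding is expressed as reads-per-million enrichment of pull-down over input, with replicates pooled.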
Consider “GATGATTGTTCTCCCAGCTGATGAATTTCATAACTCGAGTAAACAAATTTTCCTAATCTTTCTGTTCAAGCGCCATCTAC”, for which the binding signal is 0.891 RPM ratio (pull-down/input).

As to “GATGATTGTTCTCCCAGCTGATGAATTTCTAATGTCGAGTAAACAAATTTTCCTAATCTTTCTGTTCAAGCGCCATCTAC”, the binding signal was 1.03 RPM ratio (pull-down/input).

Turning to “GATGATTGTTCTCCCAGCTGATGAATTCGTGACATCGAGTAAACAAATTTTCCTAATCTTTCTGTTCAAGCGCCATCTAC”, the binding signal was 0.992 RPM ratio (pull-down/input).

On to “GATGATTGTTCTCCCAGCTGATGAATTTCTTGGTTCGAGTAAACAAATTTTCCTAATCTTTCTGTTCAAGCGCCATCTAC”, for which the binding signal was 0.839 RPM ratio (pull-down/input).

Consider “GATGATTGTTCTCCCAGCTGATGAATTAGACATCTCGAGTAAACAAATTTTCCTAATCTTTCTGTTCAAGCGCCATCTAC”, for which the binding signal was 0.973 RPM ratio (pull-down/input).

“GATGATTGTTCTCCCAGCTGATGAATTGTTAAAATCGAGTAAACAAATTTTCCTAATCTTTCTGTTCAAGCGCCATCTAC”: the binding signal was 1.24 RPM ratio (pull-down/input).

In the case of “GATGATTGTTCTCCCAGCTGATGAATTGGCATCATCGAGTAAACAAATTTTCCTAATCTTTCTGTTCAAGCGCCATCTAC”, the binding signal is 1.11 RPM ratio (pull-down/input).

Regarding “GATGATTGTTCTCCCAGCTGATGAATTTCTGCCGTCGAGTAAACAAATTTTCCTAATCTTTCTGTTCAAGCGCCATCTAC”, the binding signal was 0.825 RPM ratio (pull-down/input).

With “GATGATTGTTCTCCCAGCTGATGAATTACGGGGCTCGAGTAAACAAATTTTCCTAATCTTTCTGTTCAAGCGCCATCTAC”, the binding signal is 0.806 RPM ratio (pull-down/input).

Consider “GATGATTGTTCTCCCAGCTGATGAATTACTCACTTCGAGTAAACAAATTTTCCTAATCTTTCTGTTCAAGCGCCATCTAC”, for which the binding signal is 1.09 RPM ratio (pull-down/input).

As for “GATGATTGTTCTCCCAGCTGATGAATTCCGCGCTTCGAGTAAACAAATTTTCCTAATCTTTCTGTTCAAGCGCCATCTAC”, the binding signal was 0.891 RPM ratio (pull-down/input).

In the case of “GATGATTGTTCTCCCAGCTGATGAATTTTGGACATCGAGTAAACAAATTTTCCTAATCTTTCTGTTCAAGCGCCATCTAC”, the binding signal is 1.05 RPM ratio (pull-down/input).

Take “GATGATTGTTCTCCCAGCTGATGAATTGTCCTCTTCGAGTAAACAAATTTTCCTAATCTTTCTGTTCAAGCGCCATCTAC”: the binding signal is 1.03 RPM ratio (pull-down/input).

Consider “GATGATTGTTCTCCCAGCTGATGAATTAGCCTGCTCGAGTAAACAAATTTTCCTAATCTTTCTGTTCAAGCGCCATCTAC”, for which the binding signal was 0.857 RPM ratio (pull-down/input).

As for “GATGATTGTTCTCCCAGCTGATGAATTCTTCTTATCGAGTAAACAAATTTTCCTAATCTTTCTGTTCAAGCGCCATCTAC”, the binding signal was 0.893 RPM ratio (pull-down/input).

On to “GATGATTGTTCTCCCAGCTGATGAATTTCGCCGATCGAGTAAACAAATTTTCCTAATCTTTCTGTTCAAGCGCCATCTAC”, for which the binding signal is 0.845 RPM ratio (pull-down/input).

With “GATGATTGTTCTCCCAGCTGATGAATTGTAATACTCGAGTAAACAAATTTTCCTAATCTTTCTGTTCAAGCGCCATCTAC”, the binding signal was 1.04 RPM ratio (pull-down/input).

“GATGATTGTTCTCCCAGCTGATGAATTAAAGCGTTCGAGTAAACAAATTTTCCTAATCTTTCTGTTCAAGCGCCATCTAC”: the binding signal was 1.03 RPM ratio (pull-down/input).

“GATGATTGTTCTCCCAGCTGATGAATTTAGAACTTCGAGTAAACAAATTTTCCTAATCTTTCTGTTCAAGCGCCATCTAC”: the binding signal was 1.03 RPM ratio (pull-down/input).

“GATGATTGTTCTCCCAGCTGATGAATTAACCCCATCGAGTAAACAAATTTTCCTAATCTTTCTGTTCAAGCGCCATCTAC”: the binding signal was 0.894 RPM ratio (pull-down/input).

On to “GATGATTGTTCTCCCAGCTGATGAATTGTCTTTCTCGAGTAAACAAATTTTCCTAATCTTTCTGTTCAAGCGCCATCTAC”, for which the binding signal was 1.14 RPM ratio (pull-down/input).

Turning to “GATGATTGTTCTCCCAGCTGATGAATTAAACGAATCGAGTAAACAAATTTTCCTAATCTTTCTGTTCAAGCGCCATCTAC”, the binding signal is 0.927 RPM ratio (pull-down/input).

Take “GATGATTGTTCTCCCAGCTGATGAATTCCTCTATTCGAGTAAACAAATTTTCCTAATCTTTCTGTTCAAGCGCCATCTAC”: the binding signal was 0.833 RPM ratio (pull-down/input).

Consider “GATGATTGTTCTCCCAGCTGATGAATTATGATGCTCGAGTAAACAAATTTTCCTAATCTTTCTGTTCAAGCGCCATCTAC”, for which the binding signal is 1.64 RPM ratio (pull-down/input).

As for “GATGATTGTTCTCCCAGCTGATGAATTTGGGGATTCGAGTAAACAAATTTTCCTAATCTTTCTGTTCAAGCGCCATCTAC”, the binding signal is 0.891 RPM ratio (pull-down/input).

Turning to “GATGATTGTTCTCCCAGCTGATGAATTCAGGCTGTCGAGTAAACAAATTTTCCTAATCTTTCTGTTCAAGCGCCATCTAC”, the binding signal was 0.854 RPM ratio (pull-down/input).

For “GATGATTGTTCTCCCAGCTGATGAATTGCTGCCCTCGAGTAAACAAATTTTCCTAATCTTTCTGTTCAAGCGCCATCTAC”, the binding signal was 0.93 RPM ratio (pull-down/input).

In the case of “GATGATTGTTCTCCCAGCTGATGAATTGATTAGCTCGAGTAAACAAATTTTCCTAATCTTTCTGTTCAAGCGCCATCTAC”, the binding signal is 1 RPM ratio (pull-down/input).

For “GATGATTGTTCTCCCAGCTGATGAATTTTCTCTTTCGAGTAAACAAATTTTCCTAATCTTTCTGTTCAAGCGCCATCTAC”, the binding signal is 0.962 RPM ratio (pull-down/input).

In the case of “GATGATTGTTCTCCCAGCTGATGAATTATTGTCCTCGAGTAAACAAATTTTCCTAATCTTTCTGTTCAAGCGCCATCTAC”, the binding signal is 1.48 RPM ratio (pull-down/input).

Regarding “GATGATTGTTCTCCCAGCTGATGAATTGATCATATCGAGTAAACAAATTTTCCTAATCTTTCTGTTCAAGCGCCATCTAC”, the binding signal is 1.18 RPM ratio (pull-down/input).

For the origin of these results see paper PMC12820563, “FoxP3 forms a head-to-head dimer in vivo and stabilizes its multimerization on adjacent microsatellites”.
